Counter-ions that a name gives are not always drawn.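 A five-concentration, 48-hour dose response in 96-well plates underlies each endpoint, interpolated linearly between surrounding concentrations. GI50 marks 50% less growth.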 Calls of active or inactive are those of the source. No stated cut-off is given here; in the data, active = GI50 up to about 1.1 µM and inactive = higher.
What follows are compounds tested on NCI-H322M (assay: NCI-60 cell line screen, 48 h).
`CC1=C(C(=O)Nc2ccccc2C)C(c2ccco2)C(C(=O)Nc2ccccc2C)=C(C)N1C` was tested, and the GI50 was inactive: > 100 µM.
With `CC(=O)OCC1OC(N2C(=O)/C(=N\NC(N)=S)c3ccc([N+](=O)[O-])cc32)C(OC(C)=O)C1OC(C)=O` (configuration not stated) the GI50 was inactive: 24.4 µM.
For `NN/C(Cc1ccccc1)=N/NC(N)=S`, the GI50 was inactive: > 100 µM.
In the case of `CC1(C)C2CCC(=O)C1CC2` (configuration not stated), the GI50 is reported as inactive: > 100 µM.
In the case of `CCSC(=O)C1(C)OC2CCCCC2C1=O` (configuration not stated), the GI50 is reported as inactive: > 100 µM.
In the case of `COC(=O)C(C(=O)OC)C1CC(=O)c2c(Br)sc(Br)c21` (configuration not stated), the GI50 is reported as inactive: 18.7 µM.
For `Nc1nc(Nc2ccc(Cl)cc2)sc1C(=O)c1cc2ccccc2oc1=O`, the GI50 was inactive: 62.4 µM.
`COc1cccc(N2C(=O)/C(=C/c3ccc(N(CCC#N)CCC#N)cc3)N=C2c2cc([N+](=O)[O-])ccc2Cl)c1` was tested, and the GI50 was inactive: 51.5 µM.
For `COC(=O)[C@@]12C3=NO[C@]1(C(=O)OC)C(O[Si](C)(C)C(C)(C)C)C1OC(C)(C)OC1[C@@H]2[C@@H](OCc1ccccc1)CC3` (some centres not stated), the GI50 was inactive: > 100 µM.
For `N=C(N)SCCON1C(=O)c2ccccc2C1=O`, the GI50 was inactive: > 100 µM.
With `N#CC(C#N)=Cn1c(=S)[nH]c2ccccc21` the GI50 was inactive: > 100 µM.
In the case of `Cc1ccc(/C=C2\Cc3cc(C)c(C)cc3C2=O)c(C(=O)O)c1`, the GI50 is reported as inactive: 45.4 µM.
For `N/N=C1\C(=O)N(C2CCCCCC2)C(=O)C1C(=O)NC1CCCCCC1` (configuration not stated), the GI50 was inactive: 42.6 µM.
`NCCSSCCN` [CYSTAMINE HYDROCHLORIDE] was tested, and the GI50 was inactive: > 100 µM.
With `C=C1C(=O)OC2CC(C)C(C(CC(C)=O)OC(C)=O)=CCC12` (configuration not stated) the GI50 was inactive: 38.3 µM.
In the case of `O=C1CSC2(CC(/C=C/c3ccccc3[N+](=O)[O-])=NN2c2cccc(S(=O)(=O)O)c2)N1c1nc2ccccc2s1` (configuration not stated), the GI50 is reported as inactive: 25.5 µM.
In the case of `O=C(Nc1ccc([As](=O)(O)O)cc1)Nc1cccc(Cl)c1Cl`, the GI50 is reported as inactive: > 100 µM.
`O=C1C([N-]S(=O)(=O)c2ccccc2)=C([n+]2ccc(Cc3ccccc3)cc2)C(=O)c2ccccc21` was tested, and the GI50 was inactive: 1.7 µM.
In the case of `[N-]=[N+]=CC(=O)C1(C(=O)C=[N+]=[N-])CC1`, the GI50 is reported as inactive: > 100 µM.
`COC(=O)c1c(C)ccc2c(O)c3c(cc12)C(=O)c1c2c(cc(O)c1C3=O)C1(C)OC(C)(O2)C(O)C(N(C)C)C1O` (configuration not stated) was tested, and the GI50 was inactive: 1.64 µM.
For `CCNCC(O)COc1ccc2c(c1)[n+]([O-])nc(N)[n+]2[O-]` (configuration not stated), the GI50 was inactive: 37.2 µM.
`CC1(O)CC2C(CC1SCCO)C2(C)C` (configuration not stated) was tested, and the GI50 was inactive: > 100 µM.
For `Nc1c(S(N)(=O)=O)cc(S(N)(=O)=O)cc1S(N)(=O)=O`, the GI50 was inactive: > 100 µM.
`N=c1c2c(=S)n(-c3ccccc3)c(=S)n(-c3ccccc3)c2nc(SCCN2CCOCC2)n1-c1ccccc1` was tested, and the GI50 was inactive: 2.36 µM.
`CCOC(=O)COc1ccc2c(C)cc(=O)oc2c1` was tested, and the GI50 was inactive: > 100 µM.
In the case of `Cn1cc2ccccc2c1-c1nc(F)nc(Oc2ccc3c(c2)CC[C@@H]2C3CC[C@]3(C)C(O)CCC23)n1` (some centres not stated), the GI50 is reported as inactive: 28.2 µM.
With `COc1c2c(cc3c1OCO3)C13C=CC(OC)CC1N(CC3)C2.[O-][Cl+3]([O-])([O-])O` (configuration not stated) the GI50 was inactive: > 100 µM.
In the case of `COc1cc(-c2c3c(cc4c2OCO4)[C@@H](Nc2ccc4c(c2)Cc2cc(N[C@@H]5c6cc7c(cc6C(c6cc(OC)c(O)c(OC)c6)[C@H]6C(=O)OC[C@H]56)OCO7)ccc2-4)[C@H]2COC(=O)[C@@H]2C3)cc(OC)c1O` (some centres not stated), the GI50 is reported as inactive: 37.1 µM.
With `C/C=C/C[C@@H](C)[C@@H](O)[C@H]1C(=O)N[C@@H](CC)C(=O)N(C)CC(=O)N(C)[C@@H](CC(C)C)C(=O)N[C@@H](C(C)C)C(=O)N(C)[C@@H](CC(C)C)C(=O)N[C@@H](C)C(=O)N[C@H](C)C(=O)N(C)[C@@H](CC(C)C)C(=O)N(C)[C@@H](CC(C)C)C(=O)N(C)[C@@H](C(C)C)C(=O)N1C` [CYCLOSPORINE] the GI50 was inactive: 3.73 µM.
With `C(#C[C@@]12CCC[C@@H]1NCO2)c1ccc2c(c1)OCO2` the GI50 was inactive: 81.5 µM.
In the case of `N=C(N)NS(=O)(=O)c1ccc(NCc2c3ccccc3[n+]([O-])c3ccccc23)cc1`, the GI50 is reported as inactive: 30.8 µM.
In the case of `Cc1ccc(S(=O)(=O)Nn2c(-c3ccccc3)c(C#N)c(-c3ccc(Cl)cc3)c(C#N)c2=O)cc1`, the GI50 is reported as inactive: 23 µM.
With `COc1cccc(CCCNC(=O)Cc2ccccc2CO)c1` the GI50 was inactive: > 100 µM.
In the case of `COc1ccc(-c2cc(=O)c3c(OC)c(OC)c(OC)cc3o2)cc1`, the GI50 is reported as inactive: 33.3 µM.
For `c1ccc2nc3c(nc2c1)sc1ccccc13`, the GI50 was inactive: 26.4 µM.
`CC(=O)NC(C)c1ccc(/N=N/N2CCCC2)cc1` (configuration not stated) was tested, and the GI50 was inactive: > 100 µM.
For `CC(=O)O[C@@H]1C2=C(C)C=C(O2)[C@H]2O[C@]2(C)C[C@H]2C=C(C(=O)O2)[C@H](OC(C)=O)CC1[C@@]1(C)CO1` (some centres not stated), the GI50 was inactive: > 100 µM.
With `Cc1cc(N2CCCC2)c([N+](=O)[O-])cc1[N+](=O)[O-]` the GI50 was inactive: > 100 µM.
`CC1(C)OCC2OC3([C@@H]4OC(C)(C)O[C@H]4CO)OC(C)(C)OC3C2O1` (some centres not stated) was tested, and the GI50 was inactive: > 100 µM.
For `CC(C)(C)c1ccc(-n2c3nc(=O)n(-c4ccccc4CO)c(=O)c-3cc3ccccc32)cc1`, the GI50 was inactive: 35.2 µM.
For `c1ccc(C(NCC2CCO2)(c2ccccc2)c2ccccc2)cc1` (configuration not stated), the GI50 was inactive: 16.1 µM.
With `COc1cc2c(c3oc4c(O)cccc4c(=O)c13)CC(C(C)(O)CCl)O2` (configuration not stated) the GI50 was inactive: 4.56 µM.
In the case of `CCn1c2c(c3ccccc31)[C@@H](c1ccc(Cl)cc1)CC1C(=O)N(c3ccccc3)C(=O)C21` (some centres not stated), the GI50 is reported as inactive: 72.1 µM.
In the case of `CC1OC(OC2C(O[C@H]3CC[C@@]4(C)C(=CC[C@H]5[C@@H]6C[C@@H]7O[C@]8(CC[C@@H](C)CO8)[C@@H](C)[C@@H]7[C@@]6(C)CC[C@@H]54)C3)OC(CO)C(OC3OC(CO)C(O)C3O)C2O)C(O)C(O)C1O` (some centres not stated), the GI50 is reported as active: 1 µM.
With `COC(=O)C1=Cc2cc(OC)c(OC)c(OC)c2[C@H](c2cc(OC)c(OC)c(OC)c2)C1C(=O)OC` (some centres not stated) the GI50 was inactive: > 100 µM.
With `COc1cc2ncnc(Nc3cccc(Br)c3)c2cc1OC` the GI50 was active: 1.09 µM.
`O=[N+]([O-])c1ccc(/N=N\c2c(O)ccc3ccccc23)c([N+](=O)[O-])c1` was tested, and the GI50 was inactive: > 100 µM.
For `CCOC(=O)CN(Cc1ccccc1)Cc1c(C(=O)c2ccccc2)c2ccccc2n1C(=O)c1ccccc1`, the GI50 was inactive: > 100 µM.
For `CN(C)CCCNc1c2ccccc2[n+]([O-])c2ccccc12`, the GI50 was inactive: 43.5 µM.
For `Oc1ccc(Cl)cc1C1=NC(NCNC2=NC(c3ccccc3)CC(c3cc(Cl)ccc3O)=N2)=NC(c2ccccc2)C1` (configuration not stated), the GI50 was inactive: 41.4 µM.
In the case of `CCN(CC)CCC1CC/C(=C\c2ccc(OC)cc2)C1=O` (configuration not stated), the GI50 is reported as inactive: > 100 µM.
For `Cn1c(=N)n[n+]([O-])c2ccccc21`, the GI50 was inactive: 16.1 µM.
For `CC(=O)OC1COC(N2C(=O)/C(=N\NC(N)=S)c3cc(Br)ccc32)C(OC(C)=O)C1OC(C)=O` (configuration not stated), the GI50 was inactive: 52.8 µM.
In the case of `CCCCCCCCCCCCCCCCOCC(Cl)CP(=O)(O)OP(=O)(O)OCC1OC(n2cnc3c(N)ncnc32)C(O)C1O` (configuration not stated), the GI50 is reported as inactive: > 100 µM.
With `CN1CCN(c2cc3[nH]c(-c4ccc(Cl)cc4)nc3cc2F)CC1` the GI50 was inactive: 15.9 µM.
With `O=c1c2cc([N+](=O)[O-])ccc2n2n1CCCC2` the GI50 was inactive: > 100 µM.
For `NC(CCC(=O)NC(CSC(=O)N(O)c1ccc(Cl)cc1)C(=O)NCC(=O)O)C(=O)O` (configuration not stated), the GI50 was active: > 0.5 µM.
`O=c1[nH]c(=O)n(C2OC(CO)C(O)C(F)C2O)cc1F` (configuration not stated) was tested, and the GI50 was inactive: > 100 µM.
`O=C(O)CC1(CC(=O)O)Nc2ccccc2SC1=O` was tested, and the GI50 was inactive: > 100 µM.
In the case of `CC(C)/C(Cl)=N/OC(=O)Nc1ccc(Cl)c(Cl)c1`, the GI50 is reported as inactive: 16.1 µM.
With `C=Nc1ccc([N+](=O)[O-])cc1` the GI50 was inactive: > 100 µM.
`O=C(/C=N/c1ccccc1[S-])c1ccco1.O=C(/C=N/c1ccccc1[S-])c1ccco1.[Zn+2]` was tested, and the GI50 was inactive: 3.44 µM.
For `O=C1/C(=C/c2cccc([N+](=O)[O-])c2)COc2ccc(Br)cc21`, the GI50 was inactive: > 100 µM.
With `COc1ccc(C2Oc3ccc(O)cc3[C@@H]2C)cc1OC` (some centres not stated) the GI50 was inactive: > 100 µM.
`NC(CC1=CCC=CC1)C(=O)O` (configuration not stated) was tested, and the GI50 was inactive: 60.3 µM.
For `COc1ccc(C(O)/C(=N/N)c2nc3ccc(Cl)cc3nc2O)cc1` (configuration not stated), the GI50 was inactive: > 100 µM.
For `CCCCc1c(O)nc(Nc2nc3ccccc3[nH]2)[nH]c1=O`, the GI50 was inactive: > 100 µM.
For `N#Cc1c2c(c(N3CCOCC3)n3c1nc1ccccc13)CCCC2`, the GI50 was inactive: 17.2 µM.
`c1ccc2c(c1)SC(=C1Sc3ccccc3S1)S2` was tested, and the GI50 was inactive: > 100 µM.
`N#C/C(=C\c1ccccc1)C(NO)Nc1ccccc1` (configuration not stated) was tested, and the GI50 was inactive: > 100 µM.
With `CCOC(=O)CCC(C(=O)OCC)n1nc2ccc(Nc3c(C)[n+]([O-])c4cc(Cl)ccc4[n+]3[O-])cc2n1` (configuration not stated) the GI50 was inactive: > 100 µM.
`O=C(Cc1ccccc1)NS(=O)(=O)c1ccccc1` was tested, and the GI50 was inactive: > 100 µM.
With `CCCCCOC(=O)c1cc2cc(CCl)ccc2oc1=O` the GI50 was inactive: 16 µM.
For `O=c1[nH]cc(COCC(O)CO)c(=O)[nH]1` (configuration not stated), the GI50 was inactive: > 100 µM.
In the case of `COc1cc(CNC2=NCCC2)cc(OC)c1OC`, the GI50 is reported as inactive: > 100 µM.
In the case of `OC1C[C@H](c2ccccc2)C2(C(O)c3ccccc3C2O)[C@@H](c2ccccc2)C1` (some centres not stated), the GI50 is reported as inactive: > 100 µM.
With `COc1ccc(CNC2=Nc3ccncc3S(=O)(=O)N2c2ccccc2)cc1` the GI50 was inactive: > 100 µM.
With `Cc1ccc(S(=O)(=O)N2CCCN(S(=O)(=O)c3ccc(C)cc3)CCN(S(=O)(=O)c3ccc(C)cc3)CCCSCC2)cc1` the GI50 was inactive: > 100 µM.
For `COc1ccc(NC(=O)/C(=N/NC(N)=S)C2C(=O)NC(=S)NC2=O)c(OC)c1`, the GI50 was inactive: > 100 µM.
In the case of `Cc1cc(C)nc(NS(=O)(=O)c2ccc(NC(=O)c3cccn4c(=O)c5ccccc5nc34)cc2)n1`, the GI50 is reported as inactive: > 100 µM.
In the case of `Cc1ccc(C)c(NC(=O)C(=O)CC(=O)C2CCOC2=O)c1` (configuration not stated), the GI50 is reported as inactive: > 100 µM.
With `CCc1nc(N)nc(N)c1-c1ccc2nnn(O)c2c1` the GI50 was inactive: > 100 µM.
In the case of `CC(C)C1CC(CO)(CNc2nc(N)nc(Cl)c2C=O)C1` (configuration not stated), the GI50 is reported as inactive: 4.89 µM.
For `Cc1ccc(/C=N/n2c(-c3ccc(C)cc3)n[nH]c2=O)cc1`, the GI50 was inactive: 32.1 µM.
For `CC(NNC(=O)c1ccncc1)c1ccc(Cl)cc1Cl` (configuration not stated), the GI50 was inactive: > 100 µM.
With `COC(=O)[C@]12C3=C(O)C(=O)C[C@H]1OC[C@H]2C=CC3` the GI50 was inactive: > 100 µM.
For `O=C1NCC(CSc2nc3cc(C4CCCc5c4[nH]c4ccccc54)ccc3o2)N1` (configuration not stated), the GI50 was inactive: 52.2 µM.

— ChEMBL document CHEMBL1201862, “PubChem BioAssay data set” (2004)
